In the antibiotic and cytotoxicity screens of Wong et al. (2023):
This is one part of the list.

Assays:
HSkMC = human skeletal muscle cells; test: cytotoxicity call (relative viability < 0.9); settings: 10 µM
HepG2 = test: cytotoxicity call (relative viability < 0.9); settings: 10 µM
S. aureus RN4220 = test: growth inhibition call (relative growth <= 0.2); settings: 50 µM

| Structure (SMILES) | cytotoxicity call (HSkMC) | cytotoxicity call (HepG2) | growth inhibition call (S. aureus RN4220) |
| --- | --- | --- | --- |
| O=C(C[C@@H]1C[C@H]2c3cc(NS(=O)(=O)c4ccc(F)cc4)ccc3O[C@H]2[C@H](CO)O1)NCCc1ccccc1 | inactive | inactive | inactive |
| C[C@@H]1CN([C@@H](C)CO)C(=O)c2cc(NC(=O)Nc3ccc(F)cc3)ccc2O[C@@H](C)CCCCO[C@H]1CN(C)Cc1ccc2c(c1)OCO2 | inactive | active | inactive |
| C[C@@H]1CCCCO[C@@H](CN(C)C(=O)CCC(F)(F)F)[C@@H](C)CN([C@H](C)CO)C(=O)c2cc(NS(=O)(=O)c3ccc(F)cc3)ccc2O1 | inactive | inactive | inactive |
| CNC(=O)C[C@H]1CC[C@H]2[C@@H](COc3ccc(NC(=O)CN(C)C)cc3C(=O)N2C)O1 | inactive | inactive | inactive |
| C[C@@H]1CN([C@@H](C)CO)C(=O)Cc2cc(NC(=O)Nc3cccc4ccccc34)ccc2O[C@@H]1CN(C)C(=O)Nc1ccc(C(F)(F)F)cc1 | active | inactive | inactive |
| CCN(CC)CC(=O)Nc1c(C)cccc1C.Cl | inactive | inactive | inactive |
| CCSc1nc(=O)c(C)n[nH]1 | inactive | inactive | inactive |
| C[C@H](CO)N1C[C@H](C)[C@@H](CN(C)Cc2ccc(Cl)c(Cl)c2)Oc2ccc(NS(=O)(=O)c3cccs3)cc2C1=O | inactive | inactive | inactive |
| C[C@@H]1CN([C@@H](C)CO)C(=O)Cc2cc(NC(=O)Nc3cccc4ccccc34)ccc2O[C@H]1CN(C)C(=O)Nc1cccc2ccccc12 | inactive | inactive | inactive |
| Cc1ccc(S(=O)(=O)Nc2ccc3c(c2)C(=O)N([C@@H](C)CO)C[C@H](C)[C@H](CN(C)Cc2ccc(C(F)(F)F)cc2)O3)cc1 | inactive | inactive | inactive |
| C[C@@H]1CCCCO[C@@H](CN(C)Cc2ccccc2)[C@H](C)CN([C@@H](C)CO)C(=O)c2cc(NC(=O)Nc3ccccc3)ccc2O1 | inactive | active | inactive |
| Cc1noc(C)c1S(=O)(=O)N(C)C[C@@H]1Oc2ccc(NC(=O)Nc3ccccc3)cc2C(=O)N([C@@H](C)CO)C[C@@H]1C | inactive | inactive | inactive |
| COc1ccc(CN(C)C[C@H]2Oc3ccc(NC(=O)C4CC4)cc3CC(=O)N([C@@H](C)CO)C[C@@H]2C)cc1 | inactive | inactive | inactive |
